Test results taken from the antibiotic and cytotoxicity screens of Wong et al. (2023).
Some of the results follow.

system: HSkMC (human skeletal muscle cells); assay: cytotoxicity call (relative viability < 0.9); settings: 10 µM

| SMILES | cytotoxicity call |
| --- | --- |
| C[C@H]1CCCCO[C@H](CN(C)C(=O)c2ccccc2)[C@@H](C)CN([C@@H](C)CO)C(=O)c2cc(NC(=O)Nc3ccc4c(c3)OCO4)ccc2O1 | inactive |
| C[C@@H]1CCCCO[C@@H](CN(C)C(=O)Nc2ccccc2)[C@H](C)CN([C@H](C)CO)C(=O)c2cc(NC(=O)c3ccccc3)ccc2O1 | inactive |
| C[C@@H]1CN([C@H](C)CO)C(=O)c2cc(NS(=O)(=O)c3ccc(Cl)cc3)ccc2O[C@@H](C)CCCCO[C@@H]1CN(C)C(=O)CCC(F)(F)F | inactive |
| CO[C@@H]1CN(C)C(=O)c2ccc(NC(=O)C3CCOCC3)cc2OC[C@@H](C)N(CC2CCOCC2)C[C@H]1C | inactive |
| Cc1ccc(S[C@]2(C(=O)NCc3ccccc3)CC(=O)N(Cc3ccccc3C(F)(F)F)[C@@H]2c2ccc(CO)cc2)cc1 | inactive |
| Cc1noc(C)c1NC(=O)N(C)C[C@@H]1Oc2ccc(NS(=O)(=O)c3ccccc3)cc2C(=O)N([C@H](C)CO)C[C@H]1C | inactive |
| Cc1ccc(Sc2c(-c3ccccc3)nc3sccn23)cc1 | inactive |
| Cc1noc(C)c1S(=O)(=O)Nc1cccc2c1O[C@H](CN(C)Cc1ccccc1)[C@H](C)CN([C@H](C)CO)C2=O | inactive |
| Cc1ccc(S(=O)(=O)N2C[C@H](O)COC[C@@H]3O[C@@H](CC(=O)N4CCc5ccccc5C4)CC[C@H]32)cc1 | inactive |
| C[C@]1(CC(=O)O)C(=O)N=C2C=CC=CN21 | inactive |
| COc1ccc(S(=O)(=O)N(C)C[C@@H]2Oc3ccc(NS(=O)(=O)c4cn(C)cn4)cc3CC(=O)N([C@H](C)CO)C[C@@H]2C)cc1 | inactive |
| C[C@@H]1CN([C@H](C)CO)C(=O)c2cc(NC(=O)Cc3ccccc3)ccc2O[C@@H](C)CCCCO[C@H]1CN(C)Cc1ccc(C(F)(F)F)cc1 | inactive |
